Laboratory results published in the supplement of paper PMC8183993.
“And” between values parts separate entries of the source, which are not always exact repeats. Equal entries are not always repeated. Structures can show the parent of a compound that is named as a salt. ± gives the standard deviation of the averaged measurements. The full ranking holds about 3,100 compounds; the median of “mean cytoplasmic OPP incorporation (global translation) relative to DMSO” is about 100, and the lowest 2% start at about 56. This is one part of the list.

What follows are molecules tested on U2OS (assay: mean cytoplasmic OPP incorporation (global translation) relative to DMSO (% of DMSO); higher = more protein synthesis). Details: 10 µM; 24 h.
Experimental: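 Primary image-based screen in U2OS cells: compounds at 10 uM for 24 h, then a 1 h o-propargyl-puromycin (OPP) pulse, click labelling, and high-throughput microscopy. Mean cytoplasmic OPP intensity and nuclei count were normalised to DMSO wells within each plate (DMSO = 100) and averaged over triplicate plates.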

SMILES | mean cytoplasmic OPP incorporation
CCN1CCN(C(=O)N[C@@H](C(=O)N[C@@H]2C(=O)N3[C@@H]2SC(C)(C)[C@@H]3C(=O)O)c2ccccc2)C(=O)C1=O [Piperacillin sodium salt] | 104
O=Nc1ccc(O)c2ncccc12 | 89.8 and 59.3
Nc1ccc(S(=O)(=O)c2ccc(N)cc2)cc1 [Dapsone] | 95.4
O=C(c1ccc(C(=O)N2CCC(N3CCCC3)CC2)c(Nc2ccccc2)c1)N1CCC(N2CCCC2)CC1 | 104
OC[C@H]1O[C@@H](Oc2ccc(O)cc2)[C@H](O)[C@@H](O)[C@@H]1O [Arbutin] | 113
CN(C)CCc1c[nH]c2ccc(Cn3cncn3)cc12 [Rizatriptan Benzoate (Maxalt)] | 102
OCCN1CCN(CCCN2c3ccccc3Sc3ccc(Cl)cc32)CC1 [Perphenazine] | 117
Fc1ccc(-c2nc3n(c2-c2ccncc2)CCS3)cc1 | 102
CCC[C@H](N[C@@H](C)C(=O)N1[C@H](C(=O)O)C[C@@H]2CCCC[C@@H]21)C(=O)OCC [Perindopril] | 99.2
CCC[C@H](N[C@@H](C)C(=O)N1[C@H](C(=O)O)C[C@@H]2CCCC[C@@H]21)C(=O)OCC [Perindopril Erbumine (Aceon)] | 105
Nc1ccc(C(=O)NCC(=O)O)cc1 [Aminohippuric acid] | 98.1
COc1ccc(NS(=O)(=O)c2ccc(N)cc2)nn1 [Sulfamethoxypyridazine] | 101
CC1(C)OC(=O)NC1=O [Dimethadione] | 101
N[C@@H](C(=O)O)c1ccc(C(=O)O)c(C(=O)O)c1 | 99.7
N=C(N)NCC1COC2(CCCCC2)O1 (centres undefined) [Guanadrel sulfate] | 97.3
CCN(CC)Cc1ccc2cc(COC(=O)Nc3ccc(C(=O)NO)cc3)ccc2c1 [ITF2357 (Givinostat)] | 104
CC(=O)Oc1cccc2c1C(=O)c1c(OC(C)=O)cc(C(=O)O)cc1C2=O [Diacerein] | 102
CC(C)(C#N)c1ccc(N2C(=O)OCc3cnc4ccc(-c5cnc6ccccc6c5)cc4c32)cc1 | 113
NC(C(=O)O)c1cc(O)cc(O)c1 (racemic) | 107
COC1=CC(c2cc3ccccc3[nH]2)=N/C1=C\c1[nH]c(C)cc1C [Obatoclax mesylate (GX15-070)] | 156
N[C@H]1C(O)O[C@H](CO)[C@@H](O)[C@@H]1O (some centres undefined) [Glucosamine HCl] | 94.4
O=c1oc(Cl)c(Cl)c2ccccc12 [3,4-Dichloroisocoumarin] | 104
C=C1C[C@H]2[C@@H]3C=C(C)C4=CC(=O)CC[C@]4(C)[C@H]3CC[C@]2(C)[C@@]1(OC(C)=O)C(C)=O [Melengestrol acetate] | 104
CC(C)C[C@@H](C=O)NC(=O)[C@H](CC(C)C)NC(=O)[C@H](CC(C)C)NC(=O)OCc1ccccc1 | 91.4 and 56.1
O=c1c(O)c(-c2cc(O)c(O)c(O)c2)oc2cc(O)cc(O)c12 [Myricetin (Cannabiscetin)] | 101
CCN(CC)CCOc1ccc(Cc2ccccc2)cc1 [DPPE fumarate] | 109
Cc1cc(Cn2cnc3c2CC(C(=O)O)N(C(=O)C(c2ccccc2)c2ccccc2)C3)ccc1N(C)C (centres undefined) | 101

SMILES | mean cytoplasmic OPP incorporation
Cc1ccc(S(=O)(=O)NC(=O)NN2CC3CCCC3C2)cc1 (centres undefined) [Gliclazide] | 99.9
O=c1c(O)cccc2cc(O)c(O)c(O)c12 [Purpurogallin] | 101
CC(=O)N[C@@H](CC(=O)N[C@@H](CCC(=O)O)C(=O)O)C(=O)O [Spaglumic acid] | 102 ± 3.7
c1ccc(C(NCCNC(c2ccccc2)c2ccccc2)c2ccccc2)cc1 [AMN 082 dihydrochloride] | 97.5
COc1nc(C)nc(Cl)c1NC1=NCCN1 [Moxonidine] | 103
COc1nc(C)nc(Cl)c1NC1=NCCN1 [Moxonidine hydrochloride] | 97.9
CNCCN1CCC(OCc2ccccc2)CC1 | 111
CCCC[C@@H](C=O)NC(=O)[C@H](CC(C)C)NC(=O)OCc1ccccc1 [Calpeptin] | 106 ± 7.2
COc1cc2nc(N3CCN(C(=O)c4ccco4)CC3)nc(N)c2cc1OC [Prazosin hydrochloride] | 94.1 ± 17
NCCS(=O)(=O)O [Taurine] | 98.9
CCn1cc(C(=O)O)c(=O)c2cnc(N3CCNCC3)nc21 [Pipemidic acid] | 105
N#CC(C#N)=C(N)/C(C#N)=C/c1ccc(O)cc1 | 106
Cc1nc2c(c(=O)[nH]1)CSCC2 | 98.5
CCCCCCCC/C=C\CCCCCCCC(=O)N[C@@H](CO)Cc1ccc(O)cc1 | 95.9
CCN(CC)CCNC(=O)c1cc(S(C)(=O)=O)ccc1OC [Tiapride hydrochloride] | 103
O=C(CCCN1CC=C(n2c(=O)[nH]c3ccccc32)CC1)c1ccc(F)cc1 [Droperidol] | 105
Cc1cccc(/C=C/c2ccccc2)n1 | 99.9
COc1ccc2cc(CCC(C)=O)ccc2c1 [Nabumetone] | 84
COc1ccc(-c2oc3c(CC=C(C)C)c(O[C@@H]4O[C@H](CO)[C@@H](O)[C@H](O)[C@H]4O)cc(O)c3c(=O)c2O[C@@H]2O[C@@H](C)[C@H](O)[C@@H](O)[C@H]2O)cc1 [Icariin] | 99.6
Cc1cc(C)cc(C(=O)N(C)[C@H](Cc2ccc(-c3ccccc3)cc2)C(=O)N[C@@H](Cc2c[nH]c3ccccc23)C(=O)O)c1 | 118
C[C@H]1[C@@H](O)O[C@@H]2O[C@@]3(C)CC[C@H]4[C@H](C)CC[C@@H]1[C@@]24OO3 [Dihydroartemisinin (DHA)] | 86.7
CCn1cc(C(=O)O)c(=O)c2ccc(C)nc21 [Nalidixic acid sodium salt] | 100
C#CCN(C)Cc1ccccc1 [Pargyline hydrochloride] | 76.9
CCN(CC)CC#CCOC(=O)C(O)(c1ccccc1)C1CCCCC1 (centres undefined) [Oxybutynin chloride] | 108
Cc1ncc([N+](=O)[O-])n1CCO [Metronidazole] | 95.6
OC(CCN1CCCCC1)(c1ccccc1)C1CC2C=CC1C2 (centres undefined) [Biperiden hydrochloride] | 101
OC(CCN1CCCCC1)(c1ccccc1)C1CC2C=CC1C2 (centres undefined) [Biperiden HCl] | 104

SMILES | mean cytoplasmic OPP incorporation
O=C(NCCNCC(O)COc1ccc(O)cc1)N1CCOCC1 (centres undefined) [Xamoterol hemifumarate] | 106 ± 6.2
CCN(Cc1ccncc1)C(=O)C(CO)c1ccccc1 (centres undefined) [Tropicamide] | 101 ± 3.8
CN(C)CCOC1=Cc2ccccc2Sc2ccc(Cl)cc21 [Zotepine] | 115
CC(C)N1CCN(c2ccc(OCC3COC(Cn4cncn4)(c4ccc(Cl)cc4Cl)O3)cc2)CC1 (centres undefined) [Terconazole] | 109
CN1C2CCCC1CC(NC(=O)c1nn(C)c3ccccc13)C2 (centres undefined) [Granisetron] | 94.7
CN1C2CCCC1CC(NC(=O)c1nn(C)c3ccccc13)C2 (centres undefined) [Granisetron HCl] | 106
NC[C@H]1O[C@H](O[C@H]2[C@H](O[C@@H]3O[C@H](CO)[C@@H](O)[C@H]3O)[C@@H](O)[C@H](N)C[C@@H]2N)[C@H](N)[C@@H](O)[C@@H]1O [Ribostamycin sulfate salt] | 102
Cc1ccc(C(=O)c2cc(O)c(O)c([N+](=O)[O-])c2)cc1 [Tolcapone] | 101
O=Nc1c(-c2c(O)[nH]c3ccccc23)[nH]c2ccccc12 [Indirubin-3'-oxime] | 91
COc1ccc2[nH]cc(CCNC(C)=O)c2c1 [Melatonin] | 103 ± 4.6
C=CC[C@@H]1/C=C(\C)C[C@H](C)C[C@H](OC)[C@H]2O[C@@](O)(C(=O)C(=O)N3CCCC[C@H]3C(=O)O[C@H](/C(C)=C/[C@@H]3CC[C@@H](O)[C@H](OC)C3)[C@H](C)[C@@H](O)CC1=O)[C@H](C)C[C@@H]2OC [FK-506 (Tacrolimus)] | 116
Cc1c(C(=O)N(C)C2CCCCC2)sc2nc3ccc(N)cc3n12 | 108
COc1ccc(C(=O)NCc2cccnc2)cc1C(=O)NCc1cccnc1 [Picotamide monohydrate] | 98.8
Cc1cc([N+](=O)[O-])ccc1NS(=O)(=O)c1cc(Cl)ccc1Cl | 104
COc1ccc(COc2ccc(Cc3cnc(N)nc3N)cc2OC)cc1 | 106
C=C[C@]1(C)C[C@@H](OC(=O)CS[C@@H]2C[C@H]3CC[C@@H](C2)N3C)[C@]2(C)[C@H](C)CC[C@]3(CCC(=O)[C@H]32)[C@@H](C)[C@@H]1O [Retapamulin] | 118
Oc1ncnc2[nH]ncc12 [Allopurinol (Zyloprim)] | 117
Oc1ncnc2[nH]ncc12 [Allopurinol] | 95.2
CC(=O)N(O)[C@@H]1c2cc(C#N)ccc2OC(C)(C)[C@H]1O | 93.3
COc1ccccc1C(=O)Nc1cc2c(cc1N1CCCC1)n(C)c(=O)n2C | 122
O=C(CCc1ccc(O)cc1)c1c(O)cc(O)cc1O[C@@H]1O[C@H](CO)[C@@H](O)[C@H](O)[C@H]1O [Phlorizin (Phloridzin)] | 87.9
C[C@]12CCC(=O)C=C1CC[C@@H]1[C@@H]2[C@@H](O)C[C@@]2(C)[C@H]1CC[C@]2(O)C(=O)CO [Hydrocortisone (Cortisol)] | 104
C[C@]12CCC(=O)C=C1CC[C@@H]1[C@@H]2[C@@H](O)C[C@@]2(C)[C@H]1CC[C@]2(O)C(=O)CO [Hydrocortisone base] | 106
CCCCCCC[N+](CC)(CC)CCCCc1ccc(Cl)cc1 [Clofilium tosylate] | 84.3
CCOC(=O)C1=C[C@@H](OC(CC)CC)[C@H](NC(C)=O)[C@@H](N)C1 [Oseltamivir phosphate (Tamiflu)] | 102
